One molecule from the supplement of paper PMC8728848 can be followed below.

Common to all, as to assay: glycan array binding signal (z-score within array); higher = stronger binding
Common to all, as to conditions: glycan notation: IUPAC condensed, linker removed

Test [1] has as its target GlcNAc(b1-2)Gal(b1-3)GalNAc. The essentials:
(§1)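 Columns mapping to the same glycan were averaged after glycan names were converted to IUPAC-condensed notation. The data come from 3228 arrays in the Consortium for Functional Glycomics database, limited to those with an available protein sequence. Binding is reported as a within-array Z-score averaged across arrays of one protein sequence and across linkers.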

Test [2] addresses GlcNAc(b1-2)Man(a1-3)[GlcNAc(b1-2)Man(a1-6)]Man(b1-4)GlcNAc(b1-4)GlcNAc. The method in brief:
as §1

Test [3] has as its target GlcNAc(b1-2)Man(a1-3)[GlcNAc(b1-2)Man(a1-6)]Man(b1-4)GlcNAc(b1-4)[Fuc(a1-6)]GlcNAc. The method in brief:
as §1

For test [4], the target named is GlcNAc(b1-2)Man(a1-3)[GlcNAc(b1-4)][GlcNAc(b1-2)Man(a1-6)]Man(b1-4)GlcNAc(b1-4)GlcNAc. The method in brief: as §1
Test [5] addresses GlcNAc(b1-2)Man(a1-3)[GlcNAc(b1-4)][GlcNAc(b1-2)Man(a1-6)]Man(b1-4)GlcNAc(b1-4)[Fuc(a1-6)]GlcNAc. The essentials:
as §1

Test [6] deals with GlcNAc(b1-2)[GlcNAc(b1-4)]Man(a1-3)[GlcNAc(b1-2)Man(a1-6)]Man(b1-4)GlcNAc(b1-4)GlcNAc. The essentials:
as §1

For test [7], the target named is GlcNAc(b1-2)[GlcNAc(b1-4)]Man(a1-3)[GlcNAc(b1-4)][GlcNAc(b1-2)Man(a1-6)]Man(b1-4)GlcNAc(b1-4)GlcNAc. The method in brief: as §1
Test [8] addresses GlcNAc(b1-2)[GlcNAc(b1-4)]Man(a1-3)[GlcNAc(b1-4)][GlcNAc(b1-2)[GlcNAc(b1-6)]Man(a1-6)]Man(b1-4)GlcNAc(b1-4)GlcNAc. The method in brief: as §1
In test [9] the target is GlcNAc(b1-2)[GlcNAc(b1-4)]Man(a1-3)[GlcNAc(b1-4)][GlcNAc(b1-2)[GlcNAc(b1-6)]Man(a1-6)]Man(b1-4)GlcNAc(b1-4)[Fuc(a1-6)]GlcNAc. The method in brief: as §1
In test [10] the target is GlcNAc(b1-2)[GlcNAc(b1-6)]Man(a1-6)[GlcNAc(b1-2)Man(a1-3)]Man(b1-4)GlcNAc(b1-4)GlcNAc. The essentials: as §1
The target of test [11] is GlcNAc(b1-2)[GlcNAc(b1-6)]Man(a1-6)[GlcNAc(b1-2)Man(a1-3)]Man(b1-4)GlcNAc(b1-4)[Fuc(a1-6)]GlcNAc. The method in brief: as §1
Test [12] concerns the target GlcNAc(b1-2)[GlcNAc(b1-6)]Man(a1-6)[GlcNAc(b1-4)][GlcNAc(b1-2)Man(a1-3)]Man(b1-4)GlcNAc(b1-4)GlcNAc. The method in brief:
as §1

Another test addresses GlcNAc(b1-3)Fuc. The essentials: as §1
The next test concerns the target GlcNAc(b1-3)Gal. The essentials:
as §1

The target of test [13] is GlcNAc(b1-3)Gal(b1-3)GalNAc. The essentials:
as §1

For the next test, the target named is GlcNAc(b1-3)Gal(b1-4)Glc. The essentials: as §1
The target in test [14] is GlcNAc(b1-3)Gal(b1-4)GlcNAc. The essentials: as §1
For test [15], the target named is GlcNAc(b1-3)Gal(b1-4)GlcNAc(b1-2)Man(a1-3)[GlcNAc(b1-3)Gal(b1-4)GlcNAc(b1-2)Man(a1-6)]Man(b1-4)GlcNAc(b1-4)GlcNAc. The essentials: as §1
The target in test [16] is GlcNAc(b1-3)Gal(b1-4)GlcNAc(b1-2)Man(a1-3)[GlcNAc(b1-3)Gal(b1-4)GlcNAc(b1-2)Man(a1-6)]Man(b1-4)GlcNAc(b1-4)[Fuc(a1-6)]GlcNAc. The method in brief: as §1
Test [17] concerns the target GlcNAc(b1-3)Gal(b1-4)GlcNAc(b1-2)[GlcNAc(b1-3)Gal(b1-4)GlcNAc(b1-6)]Man(a1-6)[GlcNAc(b1-3)Gal(b1-4)GlcNAc(b1-2)Man(a1-3)]Man(b1-4)GlcNAc(b1-4)GlcNAc. The essentials:
as §1

Test [18] has as its target GlcNAc(b1-3)Gal(b1-4)GlcNAc(b1-3)Gal(b1-4)GlcNAc. The method in brief: as §1
The target in test [19] is GlcNAc(b1-3)Gal(b1-4)GlcNAc(b1-3)Gal(b1-4)GlcNAc(b1-2)Man(a1-3)[GlcNAc(b1-3)Gal(b1-4)GlcNAc(b1-3)Gal(b1-4)GlcNAc(b1-2)Man(a1-6)]Man(b1-4)GlcNAc(b1-4)GlcNAc. The essentials: as §1

The list shows a part of the results.

B1: EULS2 M4 (Oryza sativa) (protein)
chain: MVYCRANPNYAMTARNGAVVLAPANPKDEYQHWIKDMRWSTSIKDEEGYPAFALVNKATGQAIKHSLGQSHPVRLVPYNPEVMDESVLWTESRDVGNGFRCIRMVNNIYLNFDAFHGDKYHGGVRDGTDIVLWKWCEGDSLRWKIQPYYILEQKLISEEDLNSAVDHHHHHH
Take B1: the “glycan array binding signal (z-score)” value in test [1] is -0.527; in test [2] it was -0.333; in test [3] it was -0.215; in test [4] it was -0.089; in test [5], -0.133; in test [6], 0.753. The “glycan array binding signal (z-score)” value in [7] is -0.288; in test [8], -0.347; in test [9], -0.221; in test [10] it was -0.373; in [11], 0.298; in test [12], -0.337. The “glycan array binding signal (z-score)” value is -0.287 with GlcNAc(b1-3)Fuc; 0.256 in the test with GlcNAc(b1-3)Gal; 0.129 in [13]; -0.248 with GlcNAc(b1-3)Gal(b1-4)Glc; -0.37 in test [14]; -0.555 in test [15]. The “glycan array binding signal (z-score)” value in test [16] was -0.274; in test [17], 0.417; in [18], -0.562; in [19], 0.167.
